Results taken from PubChem BioAssay AID1454 (National Center for Advancing Translational Sciences (NCATS), 2008).
Where “and” joins values, the source holds several entries; their conditions need not be identical. Identical values can stand only once. Screen size: about 130,000 compounds; about 550 (0.42%) were called active. The inconclusive results got no clear call from the source; some entries with a clear call stand among them for comparison. Calls come from the whole dose curve; as a rule, active = well fitted inhibition curve with a large enough effect; inconclusive = small, poorly fitted or top-dose-only effect, or effect the other way; inactive = flat fitted curve, though single readings scatter. No potency is given beside an inconclusive call; the fits are too rough.

Experiment: qHTS Assay for Inhibitors of the ERK Signaling Pathway using a Homogeneous Screening Assay; Stimulation with EGF; note: nearly all actives have a fitted effect of over 55% in size;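 for activity change, negative = inhibition: plate controls were stimulated vehicle wells for no effect and unstimulated vehicle basal for full effect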
Settings: HEK293-V1b, EGF-stimulated phospho-ERK AlphaScreen; activity change, negative = inhibition: at the top concentration
Summary of the method: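 Stably V1b-transfected HEK293 cells; 30 min compound, then EGF 25 nM final for 5 min at 37C; 10 min lysis; phospho-ERK by AlphaScreen after 5 hr beads at room temperature.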
Potency is the fitted concentration of half-maximal effect; tags give direction and shape of the fitted curve.

For CC1=NN(c2ccccc2)C(=O)/C1=C/c1ccc[nH]1, which Potency is on record?
Its Potency is active: 17.8 µM.

Which Potency does the source give for CC(=O)Nc1sc(N/N=C/c2ccc(N(C)C)cc2)nc1-c1ccc(C)cc1 here?
The Potency was inconclusive [inhibitor, partial curve].

Which “activity change, negative = inhibition” value does the source give for C(=C\c1nc(-c2ccccc2)oc1Nc1ccc2ccccc2c1)/c1ccccc1 here?
The value was inactive: -8.29%.

Which Potency does the source give for CN(C)S(=O)(=O)c1cccc(NC(=O)COC(=O)c2cccn2C)c1 here?
Its Potency is inconclusive [activator, full curve, poor fit].

For NNC(=O)CNC(c1ccccc1)c1cc(Br)ccc1N (centres undefined), which “activity change, negative = inhibition” value is on record?
The value was inactive: -8.22% [at 57.5 µM].

With COc1ccc(N2CCN(C(=O)C3CCN(S(=O)(=O)c4ccc(C)cc4)CC3)CC2)cc1 as the molecule, how does the Potency read?
Its Potency is inconclusive [inhibitor, partial curve].

With CC(=O)OC1CC[C@@]2(C)C(CC[C@@]3(C)C2CC=C2C4CC(C)(C)CC[C@]4(C)CC[C@@]23C)C1(C)C (some centres undefined) as the molecule, how does the “activity change, negative = inhibition” value read?
The value was inactive: -13.5%.

With COC(=O)c1ccc(CSc2nnc3nc(C)cc(C)n23)cc1 as the molecule, how does the Potency read?
The Potency was inconclusive [inhibitor, single point].

With c1ccc(-c2cnn3c(-c4ccccc4)c(-c4ccccc4)nc3n2)cc1 as the molecule, how does the Potency read?
Its Potency is inconclusive [activator, partial curve].

For NNC(=S)NC1CC2CC1C1C=CCC21 (centres undefined), which “activity change, negative = inhibition” value is on record?
The value was inactive: 16.9% [at 57.5 µM].

With Cc1c(NC(=O)c2ccc(C(C)(C)C)cc2)cccc1[N+](=O)[O-] as the molecule, how does the Potency read?
Its Potency is inconclusive [inhibitor, single point].

With CCN(CCCNC(=O)CC1Oc2ccc(C)cc2NC1=O)Cc1ccccc1 (centres undefined) as the molecule, how does the “activity change, negative = inhibition” value read?
Its value is inactive: 1.35%.

Which Potency does the source give for CCOc1ncccc1C(=O)OCc1ccc(Cl)cc1 here?
Its Potency is inconclusive [activator, partial curve, poor fit].

Which Potency does the source give for CN(C)c1ccccc1C(=O)N1CCCC(C(=O)c2ccc3ccccc3c2)C1 (centres undefined) here?
The Potency was inconclusive [inhibitor, single point].

For CCOc1ccccc1NC(=S)NCCc1ccccc1, which Potency is on record?
Its Potency is inconclusive [activator, full curve].

With CSc1ccccc1C(=O)C1CCCN(Cc2cnn(-c3ccccc3)c2)C1 (centres undefined) as the molecule, how does the Potency read?
Its Potency is inconclusive [inhibitor, single point].

With Cc1cc2sc3ccccc3c(=O)c2c(C)c1O as the molecule, how does the “activity change, negative = inhibition” value read?
Its value is inactive: -1.92%.

Which Potency does the source give for Cc1cc(/C=C2/C(=O)N(C)C(=S)N2C)ccc1N1CCCC1 here?
The Potency was active: 25.1 µM.

Which Potency does the source give for Clc1ccccc1Cc1noc(CN2CCN3CCCC3C2)n1 (centres undefined) here?
The Potency was inconclusive [inhibitor, partial curve, poor fit].

With CCC1C(=NO)C(CC)C(c2ccccc2)NC1c1ccccc1 (centres undefined) as the molecule, how does the Potency read?
The Potency was inconclusive [inhibitor, single point].

With COc1cccc(/C=N/NC(=O)c2nc(-c3ccccc3)cc(-c3ccccc3)n2)c1O as the molecule, how does the Potency read?
Its Potency is inconclusive [inhibitor, partial curve].

Which Potency does the source give for COc1cc(/C=C/C(=O)OCC(=O)Nc2c(C)n(C)n(-c3ccccc3)c2=O)ccc1OCC#N here?
The Potency was inconclusive [inhibitor, single point].

Which Potency does the source give for CCOc1cc(/C=N/NC(=O)c2ccc(CN3CCOCC3)cc2)ccc1OCc1ccccc1 here?
The Potency was inconclusive [inhibitor, single point].

For CCN1C(=O)/C(=C/C=C2/Sc3ccccc3N2CCO)SC1=S, which Potency is on record?
Its Potency is inconclusive [inhibitor, partial curve].

For NNc1nc2c(Cl)cccc2s1, which Potency is on record?
Its Potency is inconclusive [inhibitor, partial curve].

Which Potency does the source give for Cc1nn(-c2ccccc2)c2ncc(C(=O)c3cc(Cl)ccc3O)cc12 here?
The Potency was inconclusive [inhibitor, partial curve].

Which Potency does the source give for Cc1cc(N=Nc2ccccc2C(=O)O)c(C)c(C)c1O here?
Its Potency is inconclusive [inhibitor, partial curve].

For Cc1cccc(Nc2cc(C)c3c(O)cccc3n2)c1C, which Potency is on record?
The Potency was inconclusive [inhibitor, single point].

For NC(=O)Cc1nc2scc(-c3ccccc3)c2c(=O)[nH]1, which “activity change, negative = inhibition” value is on record?
Its value is inactive: -3.4%.

Which “activity change, negative = inhibition” value does the source give for CC(=O)c1c(C)oc2c1C(=O)c1ccccc1C2=O here?
The value was inactive: 6.4%.

For COc1ccc(C(=O)N2CCC3(CC2)CCN(C(c2ccccc2)c2ccccc2)CC3)cc1, which “activity change, negative = inhibition” value is on record?
Its value is inactive: 5.8%.

For NC(=S)N/N=C/c1ccc(-c2ccccc2)o1, which “activity change, negative = inhibition” value is on record?
The value was inactive: -2.94%.

For CC1=CC(C)(C)[N+](C)(C)c2ccc(C)cc21, which Potency is on record?
Its Potency is inconclusive [activator, partial curve, poor fit].

With CC1CCN(CCCNC(=O)c2cc3c(Cl)nc4ccccc4c3s2)CC1 as the molecule, how does the Potency read?
The Potency was inconclusive [inhibitor, single point].

For COc1ccc(CNc2nc(-c3ccccc3OC)nc3ccccc23)c(OC)c1, which “activity change, negative = inhibition” value is on record?
The value was inactive: 30.1%.

Which Potency does the source give for COc1cccc(C(=O)COc2ccccc2-c2ccccc2)c1 here?
Its Potency is inconclusive [activator, single point].

Which Potency does the source give for O=C(NCCc1cccc(Cl)c1)c1ccc(Cl)c([N+](=O)[O-])c1 here?
Its Potency is inconclusive [inhibitor, single point].

Which Potency does the source give for Cc1ccc(-n2c(Cl)c(Cl)nc(Cl)c2=O)cc1 here?
Its Potency is inconclusive [inhibitor, single point].

Which Potency does the source give for CN(C)c1ncc2nc(CCc3ccccc3)c(=O)n(Cc3ccc(F)cc3)c2n1 here?
The Potency was inconclusive [activator, single point].

With O=C(Nc1ccc(O)c(-c2nc3ccccc3o2)c1)C1(c2ccc(Br)cc2)CCCC1 as the molecule, how does the Potency read?
Its Potency is inconclusive [activator, partial curve].

With COc1ccc2c(c1)C(=O)[C@H](OC(=O)N[C@H]1CCCc3ccccc31)[C@@H](c1ccc(OC)c(Br)c1)O2 as the molecule, how does the “activity change, negative = inhibition” value read?
Its value is inactive: -6.52%.

With CCOC(=O)c1c(-c2ccc(C)cc2)csc1NC(=O)CCSc1nnc2ccccn12 as the molecule, how does the Potency read?
The Potency was inconclusive [activator, single point].

Which Potency does the source give for c1ccc(-c2cc(-c3ccc(N4CCOCC4)cc3)nc3ccccc23)cc1 here?
Its Potency is inconclusive [activator, partial curve].

Which “activity change, negative = inhibition” value does the source give for Cc1ccc(C(=O)NCC(=O)OCC(=O)Nc2ccccc2C#N)s1 here?
The value was inactive: 1.7%.

Which Potency does the source give for COc1ccccc1OCC(=O)/C=C1/N(C)c2ccccc2C1(C)C here?
Its Potency is inconclusive [inhibitor, single point].

For COc1ccccc1Nc1nc(NCc2ccco2)c2ccccc2n1, which Potency is on record?
The Potency was inconclusive [inhibitor, single point].

Which Potency does the source give for COc1ccc(-c2nc(N=Nc3ccc(O)cc3)n[nH]2)cc1 here?
Its Potency is inconclusive [inhibitor, partial curve].

With COc1ccc(NC(=O)N2CCCC(c3nc(-c4ccc(F)cc4)no3)C2)cc1 (centres undefined) as the molecule, how does the Potency read?
Its Potency is inconclusive [inhibitor, single point].

Which Potency does the source give for O=C(Nc1cccc(Cl)c1N1CCCC1)c1ccc([N+](=O)[O-])o1 here?
The Potency was inconclusive [inhibitor, single point].

For O=C(Nc1nnc(-c2ccccc2)o1)c1nc2ccccc2s1, which Potency is on record?
The Potency was inconclusive [inhibitor, single point].

Which Potency does the source give for Brc1ccccc1OCCOCCOc1cccc2cccnc12 here?
Its Potency is inconclusive [inhibitor, single point].

With CC(CC(=O)O)Nc1ccccc1O (centres undefined) as the molecule, how does the “activity change, negative = inhibition” value read?
Its value is inactive: 7.93%.

Which Potency does the source give for COc1ccccc1N1CCN(C(=S)Nc2ccc(S(=O)(=O)N3CCOCC3)cc2)CC1 here?
The Potency was inconclusive [inhibitor, single point].

With COc1ccc(-c2cc(=O)oc3cc(OC(=O)C4CCCCC4)c(Cl)cc23)cc1 as the molecule, how does the “activity change, negative = inhibition” value read?
The value was inactive: 11%.

With O=C(Nc1nnc(C2CC2)s1)c1ccc(Cl)c(S(=O)(=O)N2CCc3ccccc3C2)c1 as the molecule, how does the Potency read?
Its Potency is inconclusive [inhibitor, single point].

With O=C(c1ccncc1)N1CCC2(CCCN(c3ccncc3)C2)CC1 as the molecule, how does the “activity change, negative = inhibition” value read?
The value was inactive: -4.33%.

With CCCCCCCCNC(C)C(O)c1ccc(SC(C)C)cc1 (centres undefined) as the molecule, how does the Potency read?
Its Potency is “inactive and active: 35.5 µM”.

For Cc1ccccc1Nc1c(-c2cccnc2)nc2ccccn12, which Potency is on record?
Its Potency is inconclusive [inhibitor, partial curve].

With Nc1cnc(Nc2ccc(Br)cc2)nc1N as the molecule, how does the Potency read?
The Potency was inconclusive [inhibitor, partial curve].

With Clc1ccccc1CN1CCN(/N=C/C=C\c2ccco2)CC1 as the molecule, how does the Potency read?
Its Potency is inconclusive [inhibitor, single point].

Which Potency does the source give for COc1cccc(NC(=O)N2CCN(c3nc(-c4cccc(OC)c4)cs3)CC2)c1 here?
The Potency was inconclusive [inhibitor, single point].

For OC1(c2ccc(F)cc2)CSC(=Nc2cccnc2)N1Cc1ccco1 (centres undefined), which Potency is on record?
The Potency was inconclusive [inhibitor, single point].

With COc1ccc(C2=CC(=O)C=CC2=O)cc1 as the molecule, how does the Potency read?
The Potency was inconclusive [inhibitor, single point].

For N#C/C(=C\c1cc2c(cc1Br)OCO2)C(=O)NCC1CCCO1 (centres undefined), which Potency is on record?
The Potency was inconclusive [inhibitor, partial curve, poor fit].

With Cc1onc(-c2ccccc2)c1C(=O)N/N=C/c1c[nH]c2ccccc12 as the molecule, how does the Potency read?
The Potency was inconclusive [inhibitor, single point].

For CCC1=C(OC(=O)N(CC)CC)N2C(=O)OC(=NCCc3c[nH]c4ccccc34)[C@]2(C)[C@H]2C1=CC[C@H]1C(=O)N(CC(=O)OC)C(=O)[C@H]12, which Potency is on record?
The Potency was “inactive”.

With Cn1c(=O)c2c(nc(Br)n2CCSc2nc3ccccc3o2)n(C)c1=O as the molecule, how does the Potency read?
The Potency was inconclusive [inhibitor, single point].

Which “activity change, negative = inhibition” value does the source give for O=C(c1cc(C(F)(F)F)cc(C(F)(F)F)c1)N1CCC2(CCCN(c3ncccn3)C2)CC1 here?
Its value is inactive: 8.56%.

With COc1cc(OC)c2c(c1Cl)O[C@@]1(C2=O)[C@H](C)CC(=O)C[C@@H]1OC as the molecule, how does the “activity change, negative = inhibition” value read?
Its value is inactive: -8.2% [at 25.7 µM].
